Measured values as given in the BET-seq Pho4 binding data (Le et al. 2018).
The list shows a part of the results. These are noisy estimates, calculated here from bound and input reads.

molecular target: T1, Pho4 (S. cerevisiae) (UniProt P07270); assay: relative binding free energy (BET-seq); higher = weaker binding; details: reference: library average
T1 sequence: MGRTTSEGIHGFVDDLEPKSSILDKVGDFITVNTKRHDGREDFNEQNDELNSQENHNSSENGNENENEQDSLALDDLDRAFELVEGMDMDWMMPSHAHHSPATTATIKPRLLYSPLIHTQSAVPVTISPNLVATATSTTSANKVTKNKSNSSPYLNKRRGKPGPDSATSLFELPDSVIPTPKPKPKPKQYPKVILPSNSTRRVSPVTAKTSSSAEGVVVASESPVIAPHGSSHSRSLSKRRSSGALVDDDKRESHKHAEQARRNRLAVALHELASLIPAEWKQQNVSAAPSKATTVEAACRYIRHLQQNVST

Sequence | relative binding free energy [kcal/mol]
GTAATCACGTGGTGAG | 0.14
GGATTCACGTGGACGT | 0.24
GAGATCACGTGCTAGG | 0.38
TTGTTCACGTGGTCTT | 0.16
CAGGACACGTGTGGTT | 0.13
GCGTTCACGTGTGAGT | 0.23
TATGTCACGTGGAAAA | 0.14
GGAAGCACGTGATAGT | -0.14
GCAATCACGTGTGGGA | 0.22
GGCGACACGTGTGTGG | 0.15
TGCCACACGTGTGTTA | 0.24
ATTGGCACGTGAGATT | 0.04
TTCTTCACGTGGATGG | 0.26
GTTATCACGTGCAGTG | 0.09
CAGGTCACGTGGGCAT | 0.03
TTTTTCACGTGCAGAG | 0.4
TAATTCACGTGAAGTT | 0.3
GTCATCACGTGGGTGC | 0.08
ATTTGCACGTGGGGCG | -0.15
TGCAGCACGTGTGTTT | -0.14
GTGGGCACGTGCTGCT | -0.25
TGTTCCACGTGTGGAG | 0.2
TATAGCACGTGTGTGC | 0.02

Sequence | relative binding free energy [kcal/mol]
GAGGGCACGTGGCCGG | -0.26
ATGTACACGTGGGGAT | 0.05
TAGACCACGTGGGTTG | -0.1
TGCAACACGTGATGTT | 0.29
GAAGTCACGTGGATGG | 0.12
CGGGGCACGTGGTCAT | -0.22
ATTTGCACGTGGCCTG | -0.08
TTATTCACGTGTTGAG | 0.22
TTGTACACGTGTGCGC | 0.1
GGGGGCACGTGTATGC | 0.02
GATTTCACGTGGAGCG | 0.29
GGTGTCACGTGGGTGG | 0.03
GATGGCACGTGGTATC | 0.01
GTTTGCACGTGGCTGC | -0.01
GTGCACACGTGTGGTA | 0.2
GGGGTCACGTGGATGG | 0.19
GCGAGCACGTGGGTCG | -0.19
TGATGCACGTGTGCTT | 0.02
GGGATCACGTGCTGTT | 0.35
GTGCACACGTGGTTTT | 0.1
GTGGCCACGTGGGACG | -0.13
GTGGTCACGTGTTGGG | 0.15
AAGTCCACGTGGGGGA | -0.17

Sequence | relative binding free energy [kcal/mol]
GTCCGCACGTGCGGGG | -0.12
TTTTGCACGTGTTCTG | -0.09
TTGCGCACGTGAGGTT | 0.02
CGGGGCACGTGGAGCG | -0.15
GGCTGCACGTGGGGTT | -0.09
GTTTTCACGTGCCGGT | 0.28
ACGTACACGTGGAGGT | 0.08
AGTTACACGTGAGCTT | 0.21
ATGGACACGTGTGAGT | 0.01
TTACGCACGTGGTAAT | -0.06
TAGTGCACGTGGTACT | -0.25
TAAGGCACGTGAGGAC | 0.23
CTTTGCACGTGAGTGC | 0.23
TGCGTCACGTGTGATT | 0.11
GTAGGCACGTGAGTCT | 0.18
GACATCACGTGGTAGT | 0.35
GTGCGCACGTGAGAGT | 0.28
TGGAGCACGTGGAGTC | -0.14
TGGGACACGTGAGCGT | 0.12
AATGACACGTGTGGCT | 0.01
TGGATCACGTGTGTTG | 0.09
CCTGTCACGTGTTGGT | 0.1
GTGGACACGTGGTTAC | -0.02

Sequence | relative binding free energy [kcal/mol]
TTGTTCACGTGGCGGG | 0.2
TGTACCACGTGATTTT | 0.06
CTAAGCACGTGGGCTG | -0.15
TCGTTCACGTGTGACT | 0.41
GAGCGCACGTGGGTGT | -0.25
GGGGCCACGTGTAATG | 0.01
GCTAGCACGTGGTTGA | 0.06
TGAAGCACGTGGTATT | -0.16
GCGATCACGTGTTTGA | 0.39
TGAGTCACGTGCTATT | -0.02
ATTAACACGTGTGGTC | 0.19
GGACGCACGTGGTTGG | -0.12
GGGGTCACGTGTCGGG | 0.19
GATTTCACGTGGTTAT | 0.27
TTGTTCACGTGAAAGC | 0.35
ATTTCCACGTGTTTAT | 0.1
TTATTCACGTGTTTAG | 0.38
TATTGCACGTGAGGCG | 0.12
ATTGACACGTGTTAAA | 0.09
AATGTCACGTGCTGTT | -0.08
GTATTCACGTGCGTGG | 0.06
GGTGGCACGTGCTAGG | -0.08
TACTTCACGTGTATTA | 0.25

Sequence | relative binding free energy [kcal/mol]
GGTCGCACGTGATTAT | 0.18
TGAAGCACGTGGCGCG | -0.16
TAGAGCACGTGGTATA | -0.16
GTTTACACGTGGAGGG | 0.12
GTAATCACGTGGGAGT | 0.07
GCTGGCACGTGTATTT | 0.04
GCGTACACGTGTATTG | 0.03
TAGGTCACGTGCGATT | 0.21
ACGTGCACGTGAAGGG | 0.1
CGTATCACGTGTTGTG | 0.13
TTACGCACGTGGGGCT | -0.38
GGGTGCACGTGAAGTT | 0.35
GGGACCACGTGTGTAG | 0.04
CAGGTCACGTGCGGGT | 0
GGGTGCACGTGGATAT | 0.06
GGGAGCACGTGTTGGT | -0.06
AACGGCACGTGAAAGG | 0.3
GTAGTCACGTGAGGGC | 0.36
AGCGTCACGTGGGGTT | -0.08
GGTGGCACGTGTGTAT | 0.01
GTTGGCACGTGGTAGG | -0.07
GATGTCACGTGAGGTA | 0.38
AATTGCACGTGGGAGG | -0.13
